Data taken from article PMC3637500.
These are yes or no findings as the source states them, for the method shown. In cells and extracts the contact can be indirect. Some entries that bind do so weakly or less than the wild type. Where a sequence is shown, tags or fusion partners need not be part of it.

T1: GST-PTP1B-D181A (substrate-trapping mutant of PTP1B, GST fusion protein) (mouse) (UniProt P35821)
T1 sequence: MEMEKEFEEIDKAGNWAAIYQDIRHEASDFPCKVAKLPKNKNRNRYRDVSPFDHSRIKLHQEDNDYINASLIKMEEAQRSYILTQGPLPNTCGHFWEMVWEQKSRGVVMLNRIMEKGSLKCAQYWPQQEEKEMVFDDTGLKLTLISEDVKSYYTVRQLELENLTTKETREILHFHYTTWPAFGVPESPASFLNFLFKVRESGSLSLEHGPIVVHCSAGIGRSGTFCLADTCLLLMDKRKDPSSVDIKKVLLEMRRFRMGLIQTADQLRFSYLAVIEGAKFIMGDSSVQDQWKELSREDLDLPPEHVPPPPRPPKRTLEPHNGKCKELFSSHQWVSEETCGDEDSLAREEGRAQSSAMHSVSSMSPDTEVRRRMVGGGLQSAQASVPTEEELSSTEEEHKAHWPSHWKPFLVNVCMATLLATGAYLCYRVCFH


target: T1, GST-PTP1B-D181A (substrate-trapping mutant of PTP1B, GST fusion protein) (mouse); assay: pull-down; substrate trapping: GST-PTP1B-WT or GST-PTP1B-D181A bound on glutathione beads; lysates of retinal ex vivo explants or HEK-293T cells treated with 1 mM pervanadate for 30 min; 2 h at 4°C in substrate-trapping buffer; immunoblot with anti-Gab1 or anti-Myc; only the target purified

binding	Binder
binds	Myc-Gab1 (ΔEYYK), Gab1 without its first 49 amino acids (domain or fragment, UniProt Q9QYY0 50-695) NDHAKKPIRIIDLNLCQQVDAGLTFNKKEFENSYIFDINTIDRIFYLVADSEEDMNKWVRCICDICGFNPTEEDPVKPLTGSSQAPVDSPFAISTAPASSQMEASSVALPPPYQVISLPPHPDTLGLQDDPQDYLLLINCQSKKPEPNRTLFDSAKPTFSETDCNDNVPSHQTPASSQSKHGMNGFFQQQMMYDCPPSRLTSVSGESSLYNLPRSYSHDVLPKESPSSTEADGELYTFNTPSGTAGVETQMRHVSISYDIPPTPGNTYQIPRTFPESTLGQSSKLDTIPDIPPPRPPKPHPTHDRSPVETCGVPRTASDTDSSYCIPPPAGMTPSRSNTISTVDLNKLRKDASSQDCYDIPRTFPSDRSSSLEGFHSQYKIKSVLTAGGVSGEELDENYVPMNPNSPPRQHSGSFTEPIQEPNYVPMTPGTFDFSSFGMQVPPPAHMGFRSSPKTPPRRPVPVADCEPPPVDRNLKPDRKVKPAPLDIKPLSEWEELQAPVRSPITRSFARDSSRFPMSPRPDSVHSTTSSSDSHDSEENYVPMNPNLSGEDPNLFASNSLDGGSSPMNKPKGDKQVEYLDLDLDSGKSTPPRKQKSSGSGSSMADERVDYVVVDQQKTLALKSTREAWTDGRQSTESETPTKNVK
binds	Myc-tagged Gab1-Y590F (protein, UniProt Q9QYY0 1-695) MSGGEVVCSGWLRKSPPEKKLKRYAWKRRWFVLRSGRLTGDPDVLEYYKNDHAKKPIRIIDLNLCQQVDAGLTFNKKEFENSYIFDINTIDRIFYLVADSEEDMNKWVRCICDICGFNPTEEDPVKPLTGSSQAPVDSPFAISTAPASSQMEASSVALPPPYQVISLPPHPDTLGLQDDPQDYLLLINCQSKKPEPNRTLFDSAKPTFSETDCNDNVPSHQTPASSQSKHGMNGFFQQQMMYDCPPSRLTSVSGESSLYNLPRSYSHDVLPKESPSSTEADGELYTFNTPSGTAGVETQMRHVSISYDIPPTPGNTYQIPRTFPESTLGQSSKLDTIPDIPPPRPPKPHPTHDRSPVETCGVPRTASDTDSSYCIPPPAGMTPSRSNTISTVDLNKLRKDASSQDCYDIPRTFPSDRSSSLEGFHSQYKIKSVLTAGGVSGEELDENYVPMNPNSPPRQHSGSFTEPIQEPNYVPMTPGTFDFSSFGMQVPPPAHMGFRSSPKTPPRRPVPVADCEPPPVDRNLKPDRKVKPAPLDIKPLSEWEELQAPVRSPITRSFARDSSRFPMSPRPDSVHSTTSSSDSHDSEENFVPMNPNLSGEDPNLFASNSLDGGSSPMNKPKGDKQVEYLDLDLDSGKSTPPRKQKSSGSGSSMADERVDYVVVDQQKTLALKSTREAWTDGRQSTESETPTKNVK
binds	Myc-Gab1 (Y47F) (protein, UniProt Q9QYY0 1-695) MSGGEVVCSGWLRKSPPEKKLKRYAWKRRWFVLRSGRLTGDPDVLEFYKNDHAKKPIRIIDLNLCQQVDAGLTFNKKEFENSYIFDINTIDRIFYLVADSEEDMNKWVRCICDICGFNPTEEDPVKPLTGSSQAPVDSPFAISTAPASSQMEASSVALPPPYQVISLPPHPDTLGLQDDPQDYLLLINCQSKKPEPNRTLFDSAKPTFSETDCNDNVPSHQTPASSQSKHGMNGFFQQQMMYDCPPSRLTSVSGESSLYNLPRSYSHDVLPKESPSSTEADGELYTFNTPSGTAGVETQMRHVSISYDIPPTPGNTYQIPRTFPESTLGQSSKLDTIPDIPPPRPPKPHPTHDRSPVETCGVPRTASDTDSSYCIPPPAGMTPSRSNTISTVDLNKLRKDASSQDCYDIPRTFPSDRSSSLEGFHSQYKIKSVLTAGGVSGEELDENYVPMNPNSPPRQHSGSFTEPIQEPNYVPMTPGTFDFSSFGMQVPPPAHMGFRSSPKTPPRRPVPVADCEPPPVDRNLKPDRKVKPAPLDIKPLSEWEELQAPVRSPITRSFARDSSRFPMSPRPDSVHSTTSSSDSHDSEENYVPMNPNLSGEDPNLFASNSLDGGSSPMNKPKGDKQVEYLDLDLDSGKSTPPRKQKSSGSGSSMADERVDYVVVDQQKTLALKSTREAWTDGRQSTESETPTKNVK
binds	Myc-tagged Gab1-Y628F (protein, UniProt Q9QYY0 1-695) MSGGEVVCSGWLRKSPPEKKLKRYAWKRRWFVLRSGRLTGDPDVLEYYKNDHAKKPIRIIDLNLCQQVDAGLTFNKKEFENSYIFDINTIDRIFYLVADSEEDMNKWVRCICDICGFNPTEEDPVKPLTGSSQAPVDSPFAISTAPASSQMEASSVALPPPYQVISLPPHPDTLGLQDDPQDYLLLINCQSKKPEPNRTLFDSAKPTFSETDCNDNVPSHQTPASSQSKHGMNGFFQQQMMYDCPPSRLTSVSGESSLYNLPRSYSHDVLPKESPSSTEADGELYTFNTPSGTAGVETQMRHVSISYDIPPTPGNTYQIPRTFPESTLGQSSKLDTIPDIPPPRPPKPHPTHDRSPVETCGVPRTASDTDSSYCIPPPAGMTPSRSNTISTVDLNKLRKDASSQDCYDIPRTFPSDRSSSLEGFHSQYKIKSVLTAGGVSGEELDENYVPMNPNSPPRQHSGSFTEPIQEPNYVPMTPGTFDFSSFGMQVPPPAHMGFRSSPKTPPRRPVPVADCEPPPVDRNLKPDRKVKPAPLDIKPLSEWEELQAPVRSPITRSFARDSSRFPMSPRPDSVHSTTSSSDSHDSEENYVPMNPNLSGEDPNLFASNSLDGGSSPMNKPKGDKQVEFLDLDLDSGKSTPPRKQKSSGSGSSMADERVDYVVVDQQKTLALKSTREAWTDGRQSTESETPTKNVK

Continued, binder first:

Binder	binding
Myc-tagged Gab1-Y473F (protein, UniProt Q9QYY0 1-695) MSGGEVVCSGWLRKSPPEKKLKRYAWKRRWFVLRSGRLTGDPDVLEYYKNDHAKKPIRIIDLNLCQQVDAGLTFNKKEFENSYIFDINTIDRIFYLVADSEEDMNKWVRCICDICGFNPTEEDPVKPLTGSSQAPVDSPFAISTAPASSQMEASSVALPPPYQVISLPPHPDTLGLQDDPQDYLLLINCQSKKPEPNRTLFDSAKPTFSETDCNDNVPSHQTPASSQSKHGMNGFFQQQMMYDCPPSRLTSVSGESSLYNLPRSYSHDVLPKESPSSTEADGELYTFNTPSGTAGVETQMRHVSISYDIPPTPGNTYQIPRTFPESTLGQSSKLDTIPDIPPPRPPKPHPTHDRSPVETCGVPRTASDTDSSYCIPPPAGMTPSRSNTISTVDLNKLRKDASSQDCYDIPRTFPSDRSSSLEGFHSQYKIKSVLTAGGVSGEELDENYVPMNPNSPPRQHSGSFTEPIQEPNFVPMTPGTFDFSSFGMQVPPPAHMGFRSSPKTPPRRPVPVADCEPPPVDRNLKPDRKVKPAPLDIKPLSEWEELQAPVRSPITRSFARDSSRFPMSPRPDSVHSTTSSSDSHDSEENYVPMNPNLSGEDPNLFASNSLDGGSSPMNKPKGDKQVEYLDLDLDSGKSTPPRKQKSSGSGSSMADERVDYVVVDQQKTLALKSTREAWTDGRQSTESETPTKNVK	binds
Myc-Gab1 (K49T) (protein, UniProt Q9QYY0 1-695) MSGGEVVCSGWLRKSPPEKKLKRYAWKRRWFVLRSGRLTGDPDVLEYYTNDHAKKPIRIIDLNLCQQVDAGLTFNKKEFENSYIFDINTIDRIFYLVADSEEDMNKWVRCICDICGFNPTEEDPVKPLTGSSQAPVDSPFAISTAPASSQMEASSVALPPPYQVISLPPHPDTLGLQDDPQDYLLLINCQSKKPEPNRTLFDSAKPTFSETDCNDNVPSHQTPASSQSKHGMNGFFQQQMMYDCPPSRLTSVSGESSLYNLPRSYSHDVLPKESPSSTEADGELYTFNTPSGTAGVETQMRHVSISYDIPPTPGNTYQIPRTFPESTLGQSSKLDTIPDIPPPRPPKPHPTHDRSPVETCGVPRTASDTDSSYCIPPPAGMTPSRSNTISTVDLNKLRKDASSQDCYDIPRTFPSDRSSSLEGFHSQYKIKSVLTAGGVSGEELDENYVPMNPNSPPRQHSGSFTEPIQEPNYVPMTPGTFDFSSFGMQVPPPAHMGFRSSPKTPPRRPVPVADCEPPPVDRNLKPDRKVKPAPLDIKPLSEWEELQAPVRSPITRSFARDSSRFPMSPRPDSVHSTTSSSDSHDSEENYVPMNPNLSGEDPNLFASNSLDGGSSPMNKPKGDKQVEYLDLDLDSGKSTPPRKQKSSGSGSSMADERVDYVVVDQQKTLALKSTREAWTDGRQSTESETPTKNVK	binds weakly
Myc-tagged Gab1-Y660F (protein, UniProt Q9QYY0 1-695) MSGGEVVCSGWLRKSPPEKKLKRYAWKRRWFVLRSGRLTGDPDVLEYYKNDHAKKPIRIIDLNLCQQVDAGLTFNKKEFENSYIFDINTIDRIFYLVADSEEDMNKWVRCICDICGFNPTEEDPVKPLTGSSQAPVDSPFAISTAPASSQMEASSVALPPPYQVISLPPHPDTLGLQDDPQDYLLLINCQSKKPEPNRTLFDSAKPTFSETDCNDNVPSHQTPASSQSKHGMNGFFQQQMMYDCPPSRLTSVSGESSLYNLPRSYSHDVLPKESPSSTEADGELYTFNTPSGTAGVETQMRHVSISYDIPPTPGNTYQIPRTFPESTLGQSSKLDTIPDIPPPRPPKPHPTHDRSPVETCGVPRTASDTDSSYCIPPPAGMTPSRSNTISTVDLNKLRKDASSQDCYDIPRTFPSDRSSSLEGFHSQYKIKSVLTAGGVSGEELDENYVPMNPNSPPRQHSGSFTEPIQEPNYVPMTPGTFDFSSFGMQVPPPAHMGFRSSPKTPPRRPVPVADCEPPPVDRNLKPDRKVKPAPLDIKPLSEWEELQAPVRSPITRSFARDSSRFPMSPRPDSVHSTTSSSDSHDSEENYVPMNPNLSGEDPNLFASNSLDGGSSPMNKPKGDKQVEYLDLDLDSGKSTPPRKQKSSGSGSSMADERVDFVVVDQQKTLALKSTREAWTDGRQSTESETPTKNVK	binds
Myc-Gab1 (K49A) (protein, UniProt Q9QYY0 1-695) MSGGEVVCSGWLRKSPPEKKLKRYAWKRRWFVLRSGRLTGDPDVLEYYANDHAKKPIRIIDLNLCQQVDAGLTFNKKEFENSYIFDINTIDRIFYLVADSEEDMNKWVRCICDICGFNPTEEDPVKPLTGSSQAPVDSPFAISTAPASSQMEASSVALPPPYQVISLPPHPDTLGLQDDPQDYLLLINCQSKKPEPNRTLFDSAKPTFSETDCNDNVPSHQTPASSQSKHGMNGFFQQQMMYDCPPSRLTSVSGESSLYNLPRSYSHDVLPKESPSSTEADGELYTFNTPSGTAGVETQMRHVSISYDIPPTPGNTYQIPRTFPESTLGQSSKLDTIPDIPPPRPPKPHPTHDRSPVETCGVPRTASDTDSSYCIPPPAGMTPSRSNTISTVDLNKLRKDASSQDCYDIPRTFPSDRSSSLEGFHSQYKIKSVLTAGGVSGEELDENYVPMNPNSPPRQHSGSFTEPIQEPNYVPMTPGTFDFSSFGMQVPPPAHMGFRSSPKTPPRRPVPVADCEPPPVDRNLKPDRKVKPAPLDIKPLSEWEELQAPVRSPITRSFARDSSRFPMSPRPDSVHSTTSSSDSHDSEENYVPMNPNLSGEDPNLFASNSLDGGSSPMNKPKGDKQVEYLDLDLDSGKSTPPRKQKSSGSGSSMADERVDYVVVDQQKTLALKSTREAWTDGRQSTESETPTKNVK	binds weakly
